Our source for the binding signal values is publication PMC9911399, “Two distinct binding modes provide the RNA-binding protein RbFox with extraordinary sequence specificity”.

Where a chain is given by its changes, count along the chain named. This is one part of the list.

T1: RBFOX1 RRM (Homo sapiens, UniProt Q9NWB1 109-208)
T1 sequence: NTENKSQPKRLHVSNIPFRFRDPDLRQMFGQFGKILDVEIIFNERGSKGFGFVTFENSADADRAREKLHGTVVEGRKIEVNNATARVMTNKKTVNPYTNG

B1: GGUGAGG (DNA:RNA)
RNA: GGGAGACCGGAAUUCAGAUUGUCCGGUGAGGUUAAAUCCCGUCGUAGCCACCA
DNA 1: CAATCTGAATTCCGGTCTCCC
DNA 2: TGGTGGCTACGACGGGATT
B2: CCACUCU (DNA:RNA)
RNA: GGGAGACCGGAAUUCAGAUUGUCCCCACUCUUUAAAUCCCGUCGUAGCCACCA
DNA 1: CAATCTGAATTCCGGTCTCCC
DNA 2: TGGTGGCTACGACGGGATT
B3: GGGUCGA (DNA:RNA)
RNA: B1 RNA with U27G, G28U, A29C, G31A
DNA 1: CAATCTGAATTCCGGTCTCCC
DNA 2: TGGTGGCTACGACGGGATT
B4: CCGUGGG (DNA:RNA)
RNA: B2 RNA with A27G, C28U, U29G, C30G, U31G
DNA 1: CAATCTGAATTCCGGTCTCCC
DNA 2: TGGTGGCTACGACGGGATT
B5: UCUUCCU (DNA:RNA)
RNA: B2 RNA with C25U, A27U, C28U, U29C
DNA 1: CAATCTGAATTCCGGTCTCCC
DNA 2: TGGTGGCTACGACGGGATT
B6: GUGACCA (DNA:RNA)
RNA: B2 RNA with C25G, C26U, A27G, C28A, U29C, U31A
DNA 1: CAATCTGAATTCCGGTCTCCC
DNA 2: TGGTGGCTACGACGGGATT
B7: ACGAGUC (DNA:RNA)
RNA: B2 RNA with C25A, A27G, C28A, U29G, C30U, U31C
DNA 1: CAATCTGAATTCCGGTCTCCC
DNA 2: TGGTGGCTACGACGGGATT
B8: GGUGAUU (DNA:RNA)
RNA: B1 RNA with G30U, G31U
DNA 1: CAATCTGAATTCCGGTCTCCC
DNA 2: TGGTGGCTACGACGGGATT
B9: GGGGCGU (DNA:RNA)
RNA: B1 RNA with U27G, A29C, G31U
DNA 1: CAATCTGAATTCCGGTCTCCC
DNA 2: TGGTGGCTACGACGGGATT
B10: CCCAUGC (DNA:RNA)
RNA: B2 RNA with A27C, C28A, C30G, U31C
DNA 1: CAATCTGAATTCCGGTCTCCC
DNA 2: TGGTGGCTACGACGGGATT
B11: GAUUAUA (DNA:RNA)
RNA: B1 RNA with G26A, G28U, G30U, G31A
DNA 1: CAATCTGAATTCCGGTCTCCC
DNA 2: TGGTGGCTACGACGGGATT
B12: AGUGUUG (DNA:RNA)
RNA: B1 RNA with G25A, A29U, G30U
DNA 1: CAATCTGAATTCCGGTCTCCC
DNA 2: TGGTGGCTACGACGGGATT
B13: AUAGGAA (DNA:RNA)
RNA: B2 RNA with C25A, C26U, C28G, U29G, C30A, U31A
DNA 1: CAATCTGAATTCCGGTCTCCC
DNA 2: TGGTGGCTACGACGGGATT
B14: AACCAGA (DNA:RNA)
RNA: B1 RNA with G25A, G26A, U27C, G28C, G31A
DNA 1: CAATCTGAATTCCGGTCTCCC
DNA 2: TGGTGGCTACGACGGGATT
B15: UGACUUA (DNA:RNA)
RNA: B2 RNA with C25U, C26G, C30U, U31A
DNA 1: CAATCTGAATTCCGGTCTCCC
DNA 2: TGGTGGCTACGACGGGATT
B16: AUAUCCA (DNA:RNA)
RNA: B2 RNA with C25A, C26U, C28U, U29C, U31A
DNA 1: CAATCTGAATTCCGGTCTCCC
DNA 2: TGGTGGCTACGACGGGATT
B17: ACCAAGU (DNA:RNA)
RNA: B2 RNA with C25A, A27C, C28A, U29A, C30G
DNA 1: CAATCTGAATTCCGGTCTCCC
DNA 2: TGGTGGCTACGACGGGATT
B18: UGGGAAU (DNA:RNA)
RNA: B1 RNA with G25U, U27G, G30A, G31U
DNA 1: CAATCTGAATTCCGGTCTCCC
DNA 2: TGGTGGCTACGACGGGATT
B19: AGCCCAG (DNA:RNA)
RNA: B1 RNA with G25A, U27C, G28C, A29C, G30A
DNA 1: CAATCTGAATTCCGGTCTCCC
DNA 2: TGGTGGCTACGACGGGATT
B20: CCUUUUA (DNA:RNA)
RNA: B2 RNA with A27U, C28U, C30U, U31A
DNA 1: CAATCTGAATTCCGGTCTCCC
DNA 2: TGGTGGCTACGACGGGATT

The test deals with T1, RBFOX1 RRM. The test is described as follows: EMSA; HiTS-Eq, 1 nM pool, 10 min; buffer printed only for the single-RNA assays: 10 mM Tris pH 7.5, 150 mM NaCl, 3.4 mM EDTA, 0.001% NP-40, 30 C. The conditions noted are these: tags: His6 N-terminal (pET28a); label: 5' 32P. The gist of the method:
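A pool of RNA with 7 randomized nucleotides, 5′-radiolabelled and with DNA-annealed flanks, was equilibrated at 1 nM for 10 min in 50 µL with purified RbFox RRM, wild type or mutant, across increasing protein concentrations. Free RNA was separated by 8% native PAGE, excised, reverse-transcribed, barcoded by PCR and sequenced. Relative association constants were obtained from read-count changes of each RNA species versus the control reaction and normalised to the cognate motif.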
A general note: In EMSA bound probe runs differently from free probe, usually more slowly.
On to B1, for which the binding signal is 0.0135 KA relative to UGCAUGU.
The same measure for B2: 0.000345 KA relative to UGCAUGU.
The same measure for B3: 0.0159 KA relative to UGCAUGU; for B4: 0.00973 KA relative to UGCAUGU.
For the molecule B5, the binding signal was 0.00401 KA relative to UGCAUGU.
The same measure for B6: 0.00446 KA relative to UGCAUGU.
Regarding B7, the binding signal was 0.00879 KA relative to UGCAUGU.
With B8, the binding signal was 0.0123 KA relative to UGCAUGU.
Take B9: the binding signal is 0.0374 KA relative to UGCAUGU.
As to B10, the binding signal was 0.00628 KA relative to UGCAUGU.
In the case of B11, the binding signal was 0.00631 KA relative to UGCAUGU.
As to B12, the binding signal is 0.0143 KA relative to UGCAUGU.
The same measure for B13: 0.00527 KA relative to UGCAUGU; for B14: 0.00285 KA relative to UGCAUGU; for B15: 0.012 KA relative to UGCAUGU.
For the molecule B16, the binding signal is 0.000171 KA relative to UGCAUGU.
As for B17, the binding signal is 0.000503 KA relative to UGCAUGU.
In the case of B18, the binding signal is 0.0297 KA relative to UGCAUGU.
As to B19, the binding signal was 0.00689 KA relative to UGCAUGU.
For B20 the value was 0.00227 KA relative to UGCAUGU.
